# Assay results published in the supplement of paper PMC9174493.
# Where a name gives a salt, the structure may show the parent alone. Some of the results follow. Single values of this set are uncertain. Values with irradiation are relative to irradiated vehicle.
# Tested on: A549-Dual
# Test: NF-kB reporter (SEAP) activity, viability-corrected, relative to vehicle (fold change vs vehicle); higher = more activation of STING-IRF / NF-kB immune response reporter
# Conditions: 1 µM; irradiation: none
# 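Note: viability correction based on the alamar blue assay, with concentrations leaving 10% survival or less dropped.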
row,Compound,NF-kB reporter
1,Nc1nc(N)c2nc(-c3ccccc3)c(N)nc2n1 [Triamterene],0.838
2,CN(C)CCN1C(=O)c2cccc3cc(N)cc(c23)C1=O [Amonafide],1.64
3,CN1CCCC1CCOC(C)(c1ccccc1)c1ccc(Cl)cc1.O=C(O)/C=C/C(=O)O (centres undefined) [Clemastine Fumarate],1.17
4,CC12C=CC(=O)C=C1CCC1C3CC(O)C(O)(C(=O)CO)C3(C)CC(O)C12F (centres undefined) [Triamcinolone],0.847
5,CC1CC2C3CCC4=CC(=O)C=CC4(C)C3C(=O)CC2(C)C1(O)C(=O)CO (centres undefined) [Meprednisone],1.06
6,CCS(=O)(=O)O.COC(=O)c1ccc2c(c1)NC(=O)/C2=C(\Nc1ccc(N(C)C(=O)CN2CCN(C)CC2)cc1)c1ccccc1 [Nintedanib Ethanesulfonate Salt],1.52
7,CCCCCCCCCCCCCCCCCCOP(=O)([O-])OC1CC[N+](C)(C)CC1 [Perifosine (KRX-0401)],1.56
8,CCC1(O)CC2CN(CCc3c([nH]c4ccccc34)C(C(=O)OC)(c3cc4c(cc3OC)N(C=O)C3C(O)(C(=O)OC)C(OC(C)=O)C5(CC)C=CCN6CCC43C65)C2)C1 (centres undefined) [Vincristine],2.55
9,Cl.Nc1ccn(C2OC(CO)C(O)C2O)c(=O)n1 (centres undefined) [Cytarabine hydrochloride],1.26
10,CC(=O)OC(C)C(C)C(=O)OCC12C3CC4(C)C(=CCC5C6(C)CCC(OC7OC(C(=O)[O][Na])C(OC8OC(CO)C(O)C(O)C8O)C(O)C7OC7OCC(O)C(O)C7O)C(C)(CO)C6CCC54C)C1CC(C)(C)C(O3)C2O (centres undefined) [Sodium Aescinate],1.26
11,CCC(=O)OC1(C(=O)SCF)C(C)CC2C3CC(F)C4=CC(=O)C=CC4(C)C3(F)C(O)CC21C (centres undefined) [Fluticasone propionate],0.739
12,CCCCC1(COC(=O)CCC(=O)O)C(=O)N(c2ccccc2)N(c2ccccc2)C1=O [Suxibuzone],1.45
13,CS(=O)(=O)Nc1cc2occ(NC=O)c(=O)c2cc1Oc1ccccc1 [Iguratimod],1.19
14,COc1cc2nccc(Oc3ccc(NC(=O)Nc4cc(C)on4)c(Cl)c3)c2cc1OC [Tivozanib (AV-951)],0.955
15,Cc1ccc(S(=O)(=O)O)cc1.NC(=O)c1cccc2cn(-c3ccc(C4CCCNC4)cc3)nc12 (centres undefined) [Niraparib (MK-4827) tosylate],1.61
16,CC(C)OC(=O)CCC/C=C\CC1C(O)CC(O)C1CCC(O)CCc1ccccc1 (centres undefined) [Latanoprost],0.5
17,"O=c1[nH]cc(F)c(=O)[nH]1 [Fluorouracil (5-Fluoracil, 5-FU)]",1.16
18,CC1(C(=O)O)CCC2(C)CCC3(C)C(=CC(=O)C4C5(C)CCC(OC6OC(C(=O)O)C(O)C(O)C6OC6OC(C(=O)O)C(O)C(O)C6O)C(C)(C)C5CCC43C)C2C1.N.N (centres undefined) [Diammonium Glycyrrhizinate],1.18
19,"CC1(C)CCC(CN2CCN(c3ccc(C(=O)NS(=O)(=O)c4ccc(NCC5CCOCC5)c([N+](=O)[O-])c4)c(Oc4cnc5[nH]ccc5c4)c3)CC2)=C(c2ccc(Cl)cc2)C1 [Venetoclax (ABT-199, GDC-0199)]",1.36
20,CCN(CC)Cc1cc(Nc2ccnc3cc(Cl)ccc23)ccc1O.Cl.Cl [Amodiaquine hydrochloride],0.898
21,CCN(C(=O)c1c(O)c2c(Cl)cccc2n(C)c1=O)c1ccccc1 [Laquinimod],1.38
22,O=C(c1ccc(OCCN2CCCCC2)cc1)c1c(-c2ccc(O)cc2)sc2cc(O)ccc12 [Raloxifene],1.38

# Same assay, conditions: 3 µM; irradiation: 8 Gy/4 fr
row,Compound,NF-kB reporter
1,CCC(=O)OCC(=O)C1(OC(=O)CC)C(C)CC2C3CCC4=CC(=O)C=CC4(C)C3(Cl)C(O)CC21C (centres undefined) [Beclomethasone dipropionate],0.626
2,CC(=O)Nc1ccc(OC(=O)c2ccccc2OC(C)=O)cc1 [Benorylate],1.08
3,Nc1ccccc1NC(=O)c1ccc(CNC(=O)OCc2cccnc2)cc1 [Entinostat (MS-275)],2.58
4,COc1cc(N2CCC(N3CCN(C)CC3)CC2)ccc1Nc1ncc(Cl)c(Nc2ccccc2P(C)(C)=O)n1,1.09
5,Cc1c(-c2ccc(-c3ccccc3F)cc2)nc2ccc(F)cc2c1C(=O)O [Brequinar],0.728
6,CCC1/C=C(\C)CC(C)CC(OC)C2OC(O)(C(=O)C(=O)N3CCCCC3C(=O)OC(/C(C)=C/C3CCC(Cl)C(OC)C3)C(C)C(O)CC1=O)C(C)CC2OC (centres undefined) [Pimecrolimus],1.1
7,COC(=O)/C=C/C(=O)OC [Dimethyl Fumarate],0.487
8,Cc1cc(Nc2ncc(Cl)c(Nc3ccccc3S(=O)(=O)C(C)C)n2)c(OC(C)C)cc1C1CCNCC1 [Ceritinib (LDK378)],0.898
9,Nc1nc(Cl)nc2c1ncn2C1CC(O)C(CO)O1 (centres undefined) [Cladribine],2.07
10,CC12CCC(=O)C=C1CCC1C2C(O)CC2(C)C1CCC2(O)C(=O)CO (centres undefined) [Hydrocortisone],1.31
11,Cc1coc2c1C(=O)C(=O)c1c-2ccc2c(C)cccc12 [Tanshinone I],1.53
12,Cn1cnc([N+](=O)[O-])c1Sc1ncnc2nc[nH]c12 [Azathioprine],1.52
13,O=c1ccc2cc3ccoc3cc2o1 [Psoralen],0.753
14,CCC(=O)NS(=O)(=O)c1ccc(-c2c(-c3ccccc3)noc2C)cc1 [Parecoxib],1.24
15,COc1ccc(-c2ccc3cc(C(=O)O)ccc3c2)cc1C12CC3CC(CC(C3)C1)C2 [Adapalene],1.56
16,CCC(C(=O)O)c1ccc(N2Cc3ccccc3C2=O)cc1 (centres undefined) [Indobufen],1.28
17,COC1CC2CCC(C)C(O)(O2)C(=O)C(=O)N2CCCCC2C(=O)OC(C(C)CC2CCC(O)C(OC)C2)CC(=O)C(C)/C=C(\C)C(O)C(OC)C(=O)C(C)CC(C)/C=C/C=C/C=C/1C (centres undefined) [Rapamycin (Sirolimus)],1.19
18,COc1ccc(C2CNC(=O)C2)cc1OC1CCCC1 (centres undefined) [Rolipram],0.992
19,Nc1nc(N)c2nc(-c3ccccc3)c(N)nc2n1 [Triamterene],1.34

row,Compound,NF-kB reporter
1,CN(C)CCN1C(=O)c2cccc3cc(N)cc(c23)C1=O [Amonafide],1.15
2,CN1CCCC1CCOC(C)(c1ccccc1)c1ccc(Cl)cc1.O=C(O)/C=C/C(=O)O (centres undefined) [Clemastine Fumarate],1.09
3,CC12C=CC(=O)C=C1CCC1C3CC(O)C(O)(C(=O)CO)C3(C)CC(O)C12F (centres undefined) [Triamcinolone],1.14
4,CC1CC2C3CCC4=CC(=O)C=CC4(C)C3C(=O)CC2(C)C1(O)C(=O)CO (centres undefined) [Meprednisone],1.22
5,CCS(=O)(=O)O.COC(=O)c1ccc2c(c1)NC(=O)/C2=C(\Nc1ccc(N(C)C(=O)CN2CCN(C)CC2)cc1)c1ccccc1 [Nintedanib Ethanesulfonate Salt],1.38
6,CCCCCCCCCCCCCCCCCCOP(=O)([O-])OC1CC[N+](C)(C)CC1 [Perifosine (KRX-0401)],0.615
7,CCC1(O)CC2CN(CCc3c([nH]c4ccccc34)C(C(=O)OC)(c3cc4c(cc3OC)N(C=O)C3C(O)(C(=O)OC)C(OC(C)=O)C5(CC)C=CCN6CCC43C65)C2)C1 (centres undefined) [Vincristine],0.73
8,Cl.Nc1ccn(C2OC(CO)C(O)C2O)c(=O)n1 (centres undefined) [Cytarabine hydrochloride],0.993
9,CC(=O)OC(C)C(C)C(=O)OCC12C3CC4(C)C(=CCC5C6(C)CCC(OC7OC(C(=O)[O][Na])C(OC8OC(CO)C(O)C(O)C8O)C(O)C7OC7OCC(O)C(O)C7O)C(C)(CO)C6CCC54C)C1CC(C)(C)C(O3)C2O (centres undefined) [Sodium Aescinate],1.49
10,CCC(=O)OC1(C(=O)SCF)C(C)CC2C3CC(F)C4=CC(=O)C=CC4(C)C3(F)C(O)CC21C (centres undefined) [Fluticasone propionate],1.14
11,CCCCC1(COC(=O)CCC(=O)O)C(=O)N(c2ccccc2)N(c2ccccc2)C1=O [Suxibuzone],1.53
12,CS(=O)(=O)Nc1cc2occ(NC=O)c(=O)c2cc1Oc1ccccc1 [Iguratimod],1.14
13,COc1cc2nccc(Oc3ccc(NC(=O)Nc4cc(C)on4)c(Cl)c3)c2cc1OC [Tivozanib (AV-951)],0.598
14,Cc1ccc(S(=O)(=O)O)cc1.NC(=O)c1cccc2cn(-c3ccc(C4CCCNC4)cc3)nc12 (centres undefined) [Niraparib (MK-4827) tosylate],0.783
15,CC(C)OC(=O)CCC/C=C\CC1C(O)CC(O)C1CCC(O)CCc1ccccc1 (centres undefined) [Latanoprost],0.43
16,"O=c1[nH]cc(F)c(=O)[nH]1 [Fluorouracil (5-Fluoracil, 5-FU)]",1.27
17,CC1(C(=O)O)CCC2(C)CCC3(C)C(=CC(=O)C4C5(C)CCC(OC6OC(C(=O)O)C(O)C(O)C6OC6OC(C(=O)O)C(O)C(O)C6O)C(C)(C)C5CCC43C)C2C1.N.N (centres undefined) [Diammonium Glycyrrhizinate],1.35
18,"CC1(C)CCC(CN2CCN(c3ccc(C(=O)NS(=O)(=O)c4ccc(NCC5CCOCC5)c([N+](=O)[O-])c4)c(Oc4cnc5[nH]ccc5c4)c3)CC2)=C(c2ccc(Cl)cc2)C1 [Venetoclax (ABT-199, GDC-0199)]",0.742
